Laboratory results from the supplement of paper PMC4604168 (melanoma cell lines).
Some of the results follow. Repeats are few or missing, and single values can be far off.

Tests used:
Experiment in all cases: cell count relative to DMSO control; melanoma cells; higher = more viable cells
Conditions in all cases: library dose: low library concentration; 72 h
COLO792 = test system: COLO792
COLO800 = test system: COLO800
COLO829 = test system: COLO829
G361 = test system: G361
IPC-298 = test system: IPC-298
IST-MEL1 = test system: IST-MEL1
LB2518-MEL = test system: LB2518-MEL
LOXIMVI = test system: LOXIMVI
MEL-HO = test system: MEL-HO
MZ2-MEL = test system: MZ2-MEL
MeWo = test system: MeWo
RPMI7951 = test system: RPMI7951
RVH-421 = test system: RVH-421
SkMel28 = test system: SkMel28
SkMel2 = test system: SkMel2
SkMel30 = test system: SkMel30
SkMel5 = test system: SkMel5
UACC257 = test system: UACC257
UACC62 = test system: UACC62
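Also: cell number obtained by counting DAPI-stained nuclei in high-throughput microscope images with image analysis software, screen run in 1,536-well plates.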

Row | Structure (SMILES) | cell count (COLO792) | cell count (COLO800) | cell count (COLO829) | cell count (G361) | cell count (IPC-298) | cell count (IST-MEL1) | cell count (LB2518-MEL) | cell count (LOXIMVI) | cell count (MEL-HO) | cell count (MZ2-MEL) | cell count (MeWo) | cell count (RPMI7951) | cell count (RVH-421) | cell count (SkMel28) | cell count (SkMel2) | cell count (SkMel30) | cell count (SkMel5) | cell count (UACC257) | cell count (UACC62)
1 | Cn1cc(C2=C(c3cn(C4CCN(Cc5ccccn5)CC4)c4ccccc34)C(=O)NC2=O)c2ccccc21 [Enzastaurin] + COc1ccc(-c2ccc3c(N4CCOCC4)nc(N4C[C@@H](C)O[C@@H](C)C4)nc3n2)cc1CO [KU0063794] (first compound 0.8 µM, partner dose 0.02 µM) | 94.8% | 91.5% | 101% | 95.8% | 102% | 96% | 86.2% | 72.1% | 102% | 94.2% | 102% | 101% | 80% | 106% | 96% | 122% | 99.9% | 86.2% | 92.8%
2 | N.N.[Cl][Pt][Cl] [cisplatin] + O=S(=O)(c1ccccc1)N(CC(F)(F)F)c1ccc(C(O)(C(F)(F)F)C(F)(F)F)cc1 [T0901317] (first compound 1.6 µM, partner dose 1.4 µM) | 98.8% | 87.9% | 102% | 93.3% | 91.4% | 96.6% | 105% | 82.4% | 91.6% | 98.6% | 94.7% | 118% | 112% | 108% | 99.4% | 105% | 91.5% | 84.4% | 103%
3 | Cn1cc(C2=C(c3cn(C4CCN(Cc5ccccn5)CC4)c4ccccc34)C(=O)NC2=O)c2ccccc21 [Enzastaurin] + O=C(Nc1ccccc1)c1cc([N+](=O)[O-])ccc1Cl [GW9662] (first compound 0.8 µM, partner dose 2 µM) | 102% | 126% | 107% | 94.2% | 106% | 104% | 96.6% | 52.8% | 81% | 94% | 116% | 94.2% | 96.7% | 93.6% | 90.6% | 90.2% | 99.6% | 91.9% | 106%
4 | N.N.[Cl][Pt][Cl] [cisplatin] + O=C(Nc1cccc(Cl)c1)Nc1ncc(CCNc2ncnc3ccsc23)s1 [SNS314] (first compound 1.6 µM, partner dose 0.0008 µM) | 98.8% | 71.9% | 123% | 102% | 98.4% | 93.9% | 98.8% | 102% | 107% | 102% | 96.1% | 112% | 96.8% | 111% | 97% | 131% | 102% | 97.7% | 84.8%
5 | N.N.[Cl][Pt][Cl] [cisplatin] + CC(C)(C)c1cnc(CSc2cnc(NC(=O)C3CCNCC3)s2)o1 [SNS-032] (first compound 1.6 µM, partner dose 0.01 µM) | 99.4% | 113% | 112% | 99% | 102% | 102% | 103% | 66.6% | 97.9% | 111% | 98.6% | 120% | 93.6% | 89.2% | 93.1% | 104% | 100% | 93.7% | 96%
6 | N.N.[Cl][Pt][Cl] [cisplatin] + COc1ccc(-c2ccc3c(N4CCOCC4)nc(N4C[C@@H](C)O[C@@H](C)C4)nc3n2)cc1CO [KU0063794] (first compound 1.6 µM, partner dose 0.02 µM) | 79.5% | 145% | 101% | 89.8% | 91.3% | 97.6% | 111% | 93.7% | 89.8% | 97.1% | 94.8% | 98.6% | 80.3% | 107% | 98.3% | 88.6% | 92.2% | 74.6% | 99.3%
7 | C[As](C)SC[C@H](NC(=O)CC[C@H](N)C(=O)O)C(=O)NCC(=O)O [Darinaparsin] + Cc1ccc(NC(=O)c2cccc(N(C)C)c2)cc1NC(=O)c1ccc(O)cc1 [ZM336372] (first compound 0.4 µM, partner dose 2 µM) | 125% | 136% | 113% | 109% | 75.3% | 89.5% | 90.4% | 154% | 70% | 85.3% | 94.8% | 94.5% | 104% | 91.3% | 96.2% | 66.4% | 97.9% | 90% | 110%
8 | Cn1cc(C2=C(c3cn(C4CCN(Cc5ccccn5)CC4)c4ccccc34)C(=O)NC2=O)c2ccccc21 [Enzastaurin] + CC1(C)NC(=O)N(c2ccc([N+](=O)[O-])c(C(F)(F)F)c2)C1=O [nilutamide] (first compound 0.8 µM, partner dose 1 µM) | 81.9% | 70.7% | 117% | 89.5% | 113% | 104% | 101% | 77.7% | 97.6% | 101% | 90.8% | 103% | 91.2% | 103% | 93% | 101% | 82.2% | 75.6% | 112%
9 | C[As](C)SC[C@H](NC(=O)CC[C@H](N)C(=O)O)C(=O)NCC(=O)O [Darinaparsin] + COc1cc2c(Oc3ccc4[nH]c(C)cc4c3F)ncnc2cc1OCCCN1CCCC1 [cediranib] (first compound 0.4 µM, partner dose 0.4 µM) | 102% | 62.8% | 119% | 108% | 113% | 121% | 101% | 123% | 107% | 107% | 108% | 133% | 102% | 120% | 102% | 109% | 94.5% | 83% | 109%
10 | Cn1cc(C2=C(c3cn(C4CCN(Cc5ccccn5)CC4)c4ccccc34)C(=O)NC2=O)c2ccccc21 [Enzastaurin] + O=C1NC(=O)/C(=C/c2ccc(-c3ccc(F)cc3O)o2)S1 [AS252424] (first compound 0.8 µM, partner dose 1 µM) | 88.1% | 105% | 107% | 97.3% | 103% | 104% | 98% | 51.8% | 91% | 94.3% | 105% | 107% | 83.4% | 97.9% | 96.7% | 94.1% | 101% | 93.8% | 92.6%
11 | N.N.[Cl][Pt][Cl] [cisplatin] + Cc1ccc(NC(=O)c2cccc(N(C)C)c2)cc1NC(=O)c1ccc(O)cc1 [ZM336372] (first compound 1.6 µM, partner dose 2 µM) | 107% | 124% | 115% | 107% | 78.8% | 98.3% | 86.7% | 145% | 94.4% | 80% | 104% | 79.8% | 101% | 104% | 102% | 82.3% | 101% | 89.7% | 98.8%
12 | N.N.[Cl][Pt][Cl] [cisplatin] + COc1cc2c(Oc3ccc4[nH]c(C)cc4c3F)ncnc2cc1OCCCN1CCCC1 [cediranib] (first compound 1.6 µM, partner dose 0.4 µM) | 93.4% | 111% | 101% | 105% | 106% | 95.1% | 109% | 69.2% | 111% | 104% | 107% | 88.9% | 86.5% | 106% | 92.2% | 101% | 105% | 96.7% | 110%
13 | C[As](C)SC[C@H](NC(=O)CC[C@H](N)C(=O)O)C(=O)NCC(=O)O [Darinaparsin] + CO[C@@H]1[C@H](N(C)C(=O)c2ccccc2)C[C@H]2O[C@]1(C)n1c3ccccc3c3c4c(c5c6ccccc6n2c5c31)C(=O)NC4 [Midostaurin] (first compound 0.4 µM, partner dose 0.08 µM) | 100% | 82.6% | 83% | 93.3% | 94.6% | 97.1% | 95.5% | 95.3% | 89.5% | 98.2% | 84.6% | 90.9% | 81.2% | 74.8% | 80.5% | 123% | 95.1% | 80.3% | 87%
14 | C[As](C)SC[C@H](NC(=O)CC[C@H](N)C(=O)O)C(=O)NCC(=O)O [Darinaparsin] + C[C@@H]1CCN(C(=O)CC#N)C[C@@H]1N(C)c1ncnc2[nH]ccc12 [CP690550] (first compound 0.4 µM, partner dose 1 µM) | 87.9% | 150% | 106% | 107% | 107% | 103% | 95.2% | 128% | 100% | 118% | 97.6% | 124% | 120% | 105% | 99.9% | 95.3% | 91.6% | 85.3% | 115%
15 | N.N.[Cl][Pt][Cl] [cisplatin] + CCc1ccc(CCOc2ccc(CC3SC(=O)NC3=O)cc2)nc1 [pioglitazone] (first compound 1.6 µM, partner dose 2 µM) | 108% | 91.6% | 53.8% | 65.2% | 68.4% | 87.4% | 71.5% | 77% | 87.2% | 64.2% | 98.8% | 69.5% | 86.8% | 84.7% | 40% | 87% | 91.7% | 90.5% | 89.7%
16 | Cn1cc(C2=C(c3cn(C4CCN(Cc5ccccn5)CC4)c4ccccc34)C(=O)NC2=O)c2ccccc21 [Enzastaurin] + O=S(=O)(c1ccccc1)N(CC(F)(F)F)c1ccc(C(O)(C(F)(F)F)C(F)(F)F)cc1 [T0901317] (first compound 0.8 µM, partner dose 1.4 µM) | 105% | 169% | 94.7% | 73.1% | 93.9% | 105% | 97.1% | 66.7% | 104% | 89.1% | 105% | 96.2% | 88.1% | 93.8% | 97.2% | 92.5% | 82.2% | 93.2% | 83.2%
17 | C[As](C)SC[C@H](NC(=O)CC[C@H](N)C(=O)O)C(=O)NCC(=O)O [Darinaparsin] + CN(NC(=O)CC(=O)NN(C)C(=S)c1ccccc1)C(=S)c1ccccc1 [STA4783] (first compound 0.4 µM, partner dose 0.006 µM) | 66.8% | 57.9% | 74.6% | 62.3% | 90.1% | 78.2% | 71.7% | 92% | 98.8% | 101% | 97.8% | 86.3% | 67.1% | 76.2% | 101% | 92% | 95% | 79.8% | 88.6%
18 | Cn1cc(C2=C(c3cn(C4CCN(Cc5ccccn5)CC4)c4ccccc34)C(=O)NC2=O)c2ccccc21 [Enzastaurin] + NC(=O)Nc1cc(-c2cccc(F)c2)sc1C(=O)N[C@H]1CCCNC1 [AZD7762] (first compound 0.8 µM, partner dose 0.02 µM) | 98.3% | 74.1% | 81.8% | 104% | 107% | 102% | 108% | 70.6% | 107% | 94.6% | 102% | 82.1% | 108% | 103% | 113% | 119% | 111% | 132% | 97.7%
